Measured values taken from the supplement of paper PMC8813932.
Counter-ions that a name gives are not always drawn. ± gives the standard deviation of the averaged measurements. The list shows a part of the results. Most values come without repeats; read them as rough.

System: OVCAR4
Experiment: log2 surviving fraction relative to plate median (drug vs vehicle, or drug+dl922-947 vs dl922-947 alone); ovarian cancer lines: OVCAR4 is platinum-sensitive while Ov4Cis resists cisplatin and Ov4Carbo carboplatin; higher = more cell survival
Details: dl922-947 oncolytic adenovirus co-treatment: MOI 10; compound concentration: 10 uM; 192 h

| Compound | log2 surviving fraction |
| --- | --- |
| N=C(N)c1ccc(N=NNc2ccc(C(=N)N)cc2)cc1 [Diminazene Aceturate] | -0.639 ± 0.72 |
| Nc1cccc2c1CN(C1CCC(=O)NC1=O)C2=O (stereo not given) [Lenalidomide] | 0.697 ± 0.52 |
| CCC(=O)O[C@@H](O[P@](=O)(CCCCc1ccccc1)CC(=O)N1C[C@H](C2CCCCC2)C[C@H]1C(=O)O)C(C)C [Fosinopril sodium (Monopril)] | 0.696 ± 0.79 |
| CC1(C)S[C@@H]2[C@H](NC(=O)[C@H](N)c3ccccc3)C(=O)N2[C@H]1C(=O)O [Ampicillin Trihydrate] | 0.448 ± 0.69 |
| CC[C@H]1OC(=O)C[C@@H](O)[C@H](C)[C@@H](O[C@@H]2O[C@H](C)[C@@H](O)[C@H](N(C)C)[C@H]2O)[C@@H](CCN2C[C@H](C)C[C@H](C)C2)C[C@@H](C)C(=O)/C=C/C(C)=C/[C@@H]1CO[C@@H]1O[C@H](C)[C@@H](O)[C@@H](OC)[C@H]1OC [Tilmicosin] | 0.433 ± 0.12 |
| CN/C(=N\CCSCc1nc[nH]c1C)NC#N [Cimetidine (Tagamet)] | -0.28 ± 0.61 |
| CC(C)C(=O)Nc1ccc([N+](=O)[O-])c(C(F)(F)F)c1 [Flutamide (Eulexin)] | -0.446 ± 0.61 |
| CCCOc1ccc(C(=O)OCCN(CC)CC)cc1N [Proparacaine HCl] | 0.681 ± 0.19 |
| C=CCc1cc(OC)c(O)c(C(=O)NCCO)c1 [Alibendol] | -0.613 ± 0.31 |
| Cn1c(CNc2ccc(C(=N)N)cc2)nc2cc(C(=O)N(CCC(=O)O)c3ccccn3)ccc21 [BIBR 953 (Dabigatran etexilate, Pradaxa)] | 0.261 ± 0.14 |
| CC(C)OC(=O)C(C(=O)OC(C)C)=C1SC=CS1 [Malotilate] | 0.479 ± 0.46 |
| CN(C)CCOc1ccc(/C(=C(/CCCl)c2ccccc2)c2ccccc2)cc1 [Toremifene Citrate (Fareston, Acapodene)] | -3.45 ± 1.9 |
| C[C@@H]1CCC[C@H](C)N1NC(=O)c1ccc(Cl)c(S(N)(=O)=O)c1 [Clopamide] | -0.197 ± 0.18 |
| CC(=O)OC[C@H]1O[C@@H]([S-])[C@H](OC(C)=O)[C@@H](OC(C)=O)[C@@H]1OC(C)=O.CCP(CC)CC.[Au+] [Auranofin] | -10.1 ± 0.61 |
| CN(C(=O)CN(CCO)CC(=O)N(C)C(C)(C)Cc1ccccc1)C(C)(C)Cc1ccccc1 [Oxethazaine] | -5.78 ± 1.9 |
| CCC[C@@H]1C[C@@H](C(=O)N[C@@H]([C@H]2O[C@H](SC)[C@H](O)[C@@H](O)[C@H]2O)[C@@H](C)O)N(C)C1 [Lincomycin hydrochloride (Lincocin)] | 0.138 ± 0.083 |
| CC12CC3CC(C)(C1)CC(N)(C3)C2 [Memantine HCl (Namenda)] | -1.11 ± 0.16 |
| Cc1cccc(C(C)c2c[nH]cn2)c1C (stereo not given) [Medetomidine HCl] | 0.193 ± 0.067 |
| O=C(O)CCNC(=O)c1ccccc1 [Betamipron] | 0.0753 ± 0.42 |
| C[C@H](CS)C(=O)N1CCC[C@H]1C(=O)O [Captopril (Capoten)] | -0.376 ± 0.26 |

| Compound | log2 surviving fraction |
| --- | --- |
| C[C@@H](O)[C@H]1C(=O)N2C(C(=O)O)=C(S[C@@H]3CN[C@H](C(=O)N(C)C)C3)[C@H](C)[C@H]12 [Meropenem] | -0.111 ± 0.67 |
| CN(C/C=C/C#CC(C)(C)C)Cc1cccc2ccccc12 [Terbinafine hydrochloride (Lamisil)] | 0.364 ± 0.11 |
| Nc1ncnc2c1ncn2[C@@H]1O[C@H](COP(=O)(O)OP(=O)(O)OP(=O)(O)O)[C@@H](O)[C@H]1O [ATP (Adenosine-Triphosphate)] | -0.118 ± 0.06 |
| NC(=O)c1cnccn1 [Pyrazinamide (Pyrazinoic acid amide)] | 0.325 ± 0.8 |
| Cc1ccccc1C(=O)Nc1ccc(C(=O)N2CCCC(O)c3cc(Cl)ccc32)c(C)c1 (stereo not given) | -1.07 ± 0.17 |
| CCC[C@H](NC(=O)[C@@H]1[C@H]2CCC[C@H]2CN1C(=O)[C@@H](NC(=O)[C@@H](NC(=O)c1cnccn1)C1CCCCC1)C(C)(C)C)C(=O)C(=O)NC1CC1 [Telaprevir (VX-950)] | -0.732 ± 0.89 |
| O=C1C(O)=C([C@H]2CC[C@H](c3ccc(Cl)cc3)CC2)C(=O)c2ccccc21 [Atovaquone (Atavaquone)] | 0.846 ± 0.033 |
| CC(C)(C#N)c1cc(Cn2cncn2)cc(C(C)(C)C#N)c1 [Anastrozole] | 0.867 ± 0.49 |
| CS(=O)(=O)CCNCc1ccc(-c2ccc3ncnc(Nc4ccc(OCc5cccc(F)c5)c(Cl)c4)c3c2)o1 [Lapatinib] | -6.64 ± 2.3 |
| CC[C@H](C)[C@H](N)C1=N[C@H](C(=O)N[C@@H](CC(C)C)C(=O)N[C@H](CCC(=O)[O-])C(=O)N[C@H](C(=O)N[C@H]2CCCCNC(=O)[C@H](CC(N)=O)NC(=O)[C@@H](CC(=O)[O-])NC(=O)[C@H](Cc3cnc[nH]3)NC(=O)[C@@H](Cc3ccccc3)NC(=O)[C@H]([C@@H](C)CC)NC(=O)[C@@H](CCCN)NC2=O)[C@@H](C)CC)CS1.[Zn+2] [Bacitracin zinc] | 0.986 ± 0.091 |
| COc1ccc(CN(CCN(C)C)c2ccccn2)cc1 [Pyrilamine Maleate] | 0.0134 ± 0.15 |
| COc1c2occc2cc2ccc(=O)oc12 [Methoxsalen (Oxsoralen)] | 0.858 ± 0.12 |
| CC(C)NCC(O)c1cc(O)cc(O)c1 (stereo not given) [Metaproterenol Sulfate] | -0.125 ± 0.22 |
| CC[C@H]1OC(=O)[C@H](C)[C@@H](O[C@H]2C[C@@](C)(OC)[C@@H](O)[C@H](C)O2)[C@H](C)[C@@H](O[C@@H]2O[C@H](C)C[C@H](N(C)C)[C@H]2O)[C@](C)(O)C[C@@H](C)CN(C)[C@H](C)[C@@H](O)[C@]1(C)O [Azithromycin Dihydrate] | -0.322 ± 0.68 |
| CCOC(=O)CCC(=O)O[C@H]1[C@H](O[C@@H]2[C@@H](C)[C@H](O[C@H]3C[C@@](C)(OC)[C@@H](O)[C@H](C)O3)[C@@H](C)C(=O)O[C@H](CC)[C@@](C)(O)[C@H](O)[C@@H](C)C(=O)[C@H](C)C[C@@]2(C)O)O[C@H](C)C[C@@H]1N(C)C [Erythromycin Ethylsuccinate] | -0.264 ± 0.74 |
| CN[C@@H]1[C@H](O)[C@H](NC)[C@H]2O[C@@]3(O)C(=O)C[C@@H](C)O[C@H]3O[C@@H]2[C@H]1O [Spectinomycin  hydrochloride] | -0.311 ± 1.1 |
| CC[C@H](C)C(=O)O[C@H]1CCC=C2C=C[C@H](C)[C@H](CC[C@@H]3C[C@@H](O)CC(=O)O3)[C@H]21 [Mevastatin] | -0.563 ± 0.85 |
| NC(CO)C(=O)NNCc1ccc(O)c(O)c1O (stereo not given) [Benserazide] | 1.03 ± 0.32 |
| C[C@](N)(Cc1ccc(O)c(O)c1)C(=O)O [Methyldopa (Aldomet)] | -0.208 ± 0.45 |
| CC(C)c1nc(CN(C)C(=O)N[C@@H](CCN2CCOCC2)C(=O)N[C@H](CC[C@H](Cc2ccccc2)NC(=O)OCc2cncs2)Cc2ccccc2)cs1 [Cobicistat (GS-9350)] | -0.036 ± 0.14 |
